From PubChem BioAssay (NCATS)
Values joined by “and” are separate entries in the source; they are usually repeats but may differ in a detail not shown here. Equal entries are not always repeated. The shares of active, inactive and inconclusive entries below differ from those in the screen. For part of these data: Potencies of inconclusive entries are doubtful fits and often do not repeat. Active and inactive are the calls of the source. The call rests on the fitted dose curve; in most records, active means well fitted curve in the direction sought with a large enough effect; inconclusive means small, poorly fitted or top-dose-only effect, or another doubt; inactive means no such curve, though single readings can be large; an effect the other way counts as inactive or inconclusive.

Columns and labels:
[1] = test system: HEK293; test: Cytotoxic Profiling of Annotated Libraries Using Quantitative High-Throughput Screening (AID 1296008); conditions: Five cell lines viability, CellTiter-Glo ATP luminescence, 48-72 h; max response: stronger effect = lower value; further: nearly all actives have a fitted effect of over 60% in size; on max response: on the % scale 0 is the no-effect control and ±100 the full control effect
Procedure, shortened: (§1)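 Compounds were pin-transferred onto cells and incubated 48 or 72 hr at 37 degree Celsius, 95% humidity. CellTiter-Glo was added, plates sat 10 min at room temperature, then ATP-coupled luminescence was imaged as the viability read-out.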

[2] = test system: HaCat; test: as above; conditions: Five cell lines viability, CellTiter-Glo ATP luminescence, 48-72 h; max response: stronger effect = lower value
Procedure, shortened: as §1

[3] = test system: KB-3-1; test: as above; conditions: Five cell lines viability, CellTiter-Glo ATP luminescence, 48-72 h; max response: stronger effect = lower value
Procedure, shortened: as §1

[4] = test system: NIH3T3; test: as above; conditions: Five cell lines viability, CellTiter-Glo ATP luminescence, 48-72 h; max response: stronger effect = lower value
Procedure, shortened: as §1

[5] = test system: MCC-13; test: qHTS assay to identify novel small-molecules to repurpose for Merkel cell carcinoma treatment (AID 1296009); conditions: MCC and control cell lines, CellTiter-Glo viability, 72 h; series mostly up to 46 µM; further: nearly all actives have a fitted effect of over 60% in size; on activity change, negative = cytotoxicity: on the % scale 0 is the no-effect control and ±100 the full control effect
Procedure, shortened: (§2)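 Viability readout: ATP luminescence (CellTiter-Glo) after 72 hr drug exposure at 37 degree celsius. Dose-response format was 8 points for NPC and 11 points for MIPE; data normalized to in-plate controls.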

[6] = test system: MCC-26; test: as above; conditions: MCC and control cell lines, CellTiter-Glo viability, 72 h; series mostly up to 46 µM
Procedure, shortened: as §2

[7] = test system: MKL-1; test: as above; conditions: MCC and control cell lines, CellTiter-Glo viability, 72 h; series mostly up to 46 µM
Procedure, shortened: as §2

[8] = test system: UISO; test: as above; conditions: MCC and control cell lines, CellTiter-Glo viability, 72 h; series mostly up to 46 µM
Procedure, shortened: as §2

[9] = test system: WaGa; test: as above; conditions: MCC and control cell lines, CellTiter-Glo viability, 72 h; series mostly up to 46 µM
Procedure, shortened: as §2

[10] = qHTS assay to identify inhibitors of the type 1 interferon - major histocompatibility complex class I in skeletal muscle: Counter screen cell viability and HiBit confirmation (AID 1347412); conditions: iHSKM muscle cells + IFN-b, HiBiT or CellTiter-Glo, 24 h; for activity change, negative = inhibition: at 45.9 µM (top of the series); on activity change, negative = inhibition: on the % scale 0 is the no-effect control and ±100 the full control effect; on all read-outs here: nearly all actives have a fitted effect of over 60% in size
Procedure, shortened: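 Myoblasts (C25cl48, HLA-B HiBiT) seeded in medium without dexamethasone, IFN-b 4 ng/ml added except unstimulated columns; 1 hr later compounds pinned (12-pt 1:3, top 46 uM final). Incubated 24 hrs, lysed 10 min, luminescence measured.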

[11] = test system: W2; test: qHTS profiling for inhibitors of Plasmodium falciparum proliferation (AID 504749); further: nearly all actives have a fitted effect of over 60% in size; conditions: P. falciparum in erythrocytes, SYBR Green DNA, 72 h; series mostly up to 28.7 µM
Procedure, shortened: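 Quantitative HTS: compounds pinned into medium, infected erythrocytes added (0.3% parasitemia, 2.5% hematocrit), 72 h culture at 37 C under 5% CO2. Saponin/Triton lysis with SYBR Green I, overnight RT, then fluorescence read.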

[12] = test system: CAOV3; test: Primary qHTS to identify gynecologic anti-cancer compounds using libraries of approved drugs and bioactive compounds (AID 1345084); conditions: Gynecologic cancer cell panel viability, ATPlite luminescence, 48 h; series mostly up to 57.5 µM; further: nearly all actives have a fitted effect of over 55% in size
Procedure, shortened: (§3)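 Measured: luminescence after ATPlite addition (15 min, RT). Exposure: 48 h, 37 C, 5% CO2.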

[13] = test system: CASKI; test: as above; conditions: Gynecologic cancer cell panel viability, ATPlite luminescence, 48 h; activity change, negative = cytotoxicity: at 57.5 µM (top of the series)
Procedure, shortened: as §3

[14] = test system: Es-2; test: as above; conditions: Gynecologic cancer cell panel viability, ATPlite luminescence, 48 h; series mostly up to 57.5 µM
Procedure, shortened: as §3

[15] = test system: MKL-2; test: qHTS assay to identify novel small-molecules to repurpose for Merkel cell carcinoma treatment (AID 1296009); conditions: MCC and control cell lines, CellTiter-Glo viability, 72 h; series mostly up to 46 µM; further: nearly all actives have a fitted effect of over 60% in size; on activity change, negative = cytotoxicity: on the % scale 0 is the no-effect control and ±100 the full control effect
Procedure, shortened: as §2

[16] = test system: C33A; test: Primary qHTS to identify gynecologic anti-cancer compounds using libraries of approved drugs and bioactive compounds (AID 1345084); conditions: Gynecologic cancer cell panel viability, ATPlite luminescence, 48 h; series mostly up to 57.5 µM; further: nearly all actives have a fitted effect of over 55% in size
Procedure, shortened: as §3

[17] = test system: HeLa; test: as above; conditions: Gynecologic cancer cell panel viability, ATPlite luminescence, 48 h; series mostly up to 57.5 µM
Procedure, shortened: as §3
Potency means the concentration at half of the fitted maximal effect; tags describe the fitted curve by direction and shape.

Structure (SMILES): Oc1cccc(-c2nc(N3CCOCC3)c3oc4ncccc4c3n2)c1
- Potency [1]: active: 0.171 µM
- Potency [2]: inconclusive: 0.0108 µM [inhibitor, full curve]
- Potency [3]: inconclusive: 0.303 µM [inhibitor, full curve]
- Potency [4]: active: 0.762 µM
- Potency [5]: inconclusive: 1.08 µM [inhibitor, full curve, poor fit]
- Potency [6]: inconclusive: 0.605 µM [inhibitor, full curve]
- Potency [7]: inconclusive: 0.96 µM [inhibitor, full curve]
- Potency [8]: inconclusive: 0.96 µM [inhibitor, full curve]
- Potency [9]: inconclusive: 0.136 µM [inhibitor, full curve]
- Potency ([10]; HiBiT): inconclusive: 0.125 µM [inhibitor, full curve]
- Potency ([10]; Viability): inconclusive: 0.351 µM [cytotoxic, full curve]

Structure (SMILES): CCn1c(-c2nonc2N)nc2cnc(Oc3cccc(NC(=O)c4ccc(OCCN5CCOCC5)cc4)c3)cc21
- Potency [1]: active: 11.8 µM
- Potency [3]: active: 5.9 µM
- Potency [4]: active: 14.8 µM
- Potency [5]: inconclusive: 0.372 µM [inhibitor, full curve]
- Potency [7]: inconclusive: 0.526 µM [inhibitor, full curve]
- Potency [8]: inconclusive: 5.9 µM [inhibitor, full curve, poor fit]
- Potency [9]: inconclusive: 0.0833 µM [inhibitor, full curve]

Structure (SMILES): COc1ccc2c3n(c(=NC(=O)c4cccnc4)nc2c1OC)CCN3
- Potency [1]: inconclusive: 26.4 µM [inhibitor, partial curve]
- Potency [2]: active: 10.5 µM
- max response [3]: inactive: -17.8%
- Potency [4]: inconclusive: 8.33 µM [inhibitor, full curve]
- Potency [8]: inconclusive: 0.0332 µM [inhibitor, full curve]
- Potency [9]: inconclusive: 2.64 µM [inhibitor, partial curve]

Structure (SMILES): Cc1c(-c2cccc3c(CCCOc4cccc5ccccc45)c(C(=O)O)n(Cc4cccnc4)c23)c(COc2ccc(N3CCN([S+](=O)([O-])N(C)C)CC3)cc2)nn1C
- Potency [1]: inconclusive: 37.2 µM [inhibitor, single point]
- Potency [3]: inconclusive: 26.4 µM [inhibitor, single point]

Structure (SMILES): CC(=O)OCC(=O)[C@@]1(OC(C)=O)[C@@H](C)C[C@H]2[C@@H]3C[C@H](F)C4=CC(=O)C=C[C@]4(C)[C@@]3(F)[C@@H](O)C[C@@]21C
- Potency [11]: active: 6.01 µM
- Potency [1]: inconclusive: 23.7 µM [inhibitor, single point]
- Potency [2]: inconclusive: 33.5 µM [inhibitor, single point]
- activity change, negative = inhibition ([10]; HiBiT): inactive: -12.8%
- activity change, negative = inhibition ([10]; Viability): inactive: 22.5%

Structure (SMILES): O=C(Nc1ccc(Oc2ccnc3[nH]ccc23)c(F)c1)c1cccn(-c2ccc(F)cc2)c1=O
- Potency [1]: inconclusive: 29.1 µM [inhibitor, single point]
- Potency [3]: inconclusive: 32.6 µM [inhibitor, partial curve, poor fit]
- outcome [3]: inactive
- Potency [4]: inconclusive: 13 µM [inhibitor, partial curve]
- Potency [9]: inactive

Structure (SMILES): COc1ccc(S(=O)(=O)Nc2cc(-c3c(O)ccc4ccccc34)c(O)c3ccccc23)cc1
- Potency [1]: inconclusive: 33.2 µM [inhibitor, single point]
- Potency [3]: inconclusive: 29.6 µM [inhibitor, single point]

Structure (SMILES): Oc1cc(-c2nc(-c3ccccc3)[nH]c2-c2ccncc2)ccc1Cl
- Potency [1]: active: 23.5 µM and inconclusive: 18.4 µM [inhibitor, single point]
- Potency [2]: inconclusive: 37.2 µM [inhibitor, partial curve, poor fit] and inconclusive: 29.1 µM [inhibitor, single point]
- Potency [5]: inconclusive: 14.8 µM [inhibitor, partial curve]
- Potency [6]: inconclusive: 23.5 µM [inhibitor, single point]
- Potency [9]: inconclusive: 14.8 µM [inhibitor, partial curve]
- Potency [12]: inconclusive: 25.1 µM [cytotoxic, single point]
- Potency [13]: inconclusive: 39.8 µM [cytotoxic, single point]
- Potency [14]: inconclusive: 12.6 µM [cytotoxic, partial curve]

Structure (SMILES): CN(C)/N=N/c1nc[nH]c1C(N)=O
- Potency [11]: inactive
- Potency [1]: inconclusive: 1.68 µM [inhibitor, partial curve, poor fit]
- Potency [2]: inconclusive: 33.5 µM [inhibitor, single point]
- Potency [4]: inconclusive: 29.9 µM [inhibitor, single point]
- Potency [15]: inconclusive: 1.88 µM [inhibitor, full curve]
- Potency [8]: inconclusive: 2.99 µM [inhibitor, full curve]
- Potency [9]: inconclusive: 26.6 µM [inhibitor, partial curve]
- Potency [16]: inconclusive: 39.8 µM [cytotoxic, single point]
- Potency [13]: inconclusive: 39.8 µM [cytotoxic, single point]
- Potency [14]: inconclusive: 25.1 µM [cytotoxic, partial curve, poor fit]
- Potency [17]: inconclusive: 3.16 µM [cytotoxic, partial curve, poor fit]
